Peptide text beside a SMILES is read from it.
System: CD40-activated B cells (CD40-B)

**Q.** Which “lysis of CD40-activated B cells (express CYP1B1, unpulsed) by peptide-specific CTL” value does the source give for `CSCC[C@H](NC(=O)[C@@H](NC(=O)[C@H](CC(=O)O)NC(=O)[C@@H](NC(=O)[C@H](CC(C)C)NC(=O)[C@@H](N)CO)C(C)C)C(C)C)C(=O)N1CCC[C@H]1C(=O)N[C@@H](Cc1c[nH]c2ccccc12)C(=O)N[C@@H](CC(C)C)C(=O)O` [CYP239] (H-SLVDVMPWL-OH) here?
**A.** not lysed

**Q.** `CC(C)C[C@H](NC(=O)[C@@H](N)Cc1c[nH]c2ccccc12)C(=O)N[C@@H](CCC(N)=O)C(=O)N[C@@H](Cc1ccc(O)cc1)C(=O)N[C@@H](Cc1ccccc1)C(=O)N1CCC[C@H]1C(=O)N[C@@H](CC(N)=O)C(=O)N1CCC[C@H]1C(=O)N[C@H](C(=O)O)C(C)C` [CYP246] (H-WLQYFPNPV-OH; N-terminus and C-terminus assumed) was tested. Which “lysis of CD40-activated B cells (express CYP1B1, unpulsed) by peptide-specific CTL” value did it give?
**A.** not lysed

Source: patent US7385023B1, “Cancer immunotherapy and diagnosis using cytochrome P450 1B1” (Trustees of Boston University, priority 2000, dated 2008)
